# In the supplement of paper PMC11348887:
# Counter-ions that a name gives are not always drawn. The list shows a part of the results. No stated cut-off is given here; in the data, active = -2 or less and inactive = the rest. Repeats are few or missing, and single values can be far off.
# System: hPSC-derived cortical neurons (WA09)
# Test: nuclei number (viability) z-score; higher = more surviving cells
# Settings: 5 µM; treatment: days 7-14 after plating, readout day 21
# 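Further: nuclei counted from DAPI counterstain by automated high-content image analysis, four fields per well at ×20 in 384-well plates, with sequential b-score then z-score normalization.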
row,SMILES,nuclei number (z-score)
1,COc1ccc(CN2CCN(C(c3ccc(F)cc3)c3ccc(F)cc3)CC2)c(OC)c1OC [Lomerizine HCl],active: -2
2,CC(C)Cc1ccc(C(C)C(=O)O)cc1 (stereo not given) [Ibuprofen Lysine],inactive: 1.33
3,CC(C)Cc1ccc(C(C)C(=O)O)cc1 (stereo not given) [Ibuprofen],inactive: -0.716
4,Cc1cc(N2CCN([C@@H]3CN[C@H](C(=O)N4CCSC4)C3)CC2)n(-c2ccccc2)n1 [Teneligliptin hydrobromide],inactive: -0.257
5,CC[C@@H]([C@H](C)O)n1ncn(-c2ccc(N3CCN(c4ccc(OC[C@@H]5CO[C@@](Cn6cncn6)(c6ccc(F)cc6F)C5)cc4)CC3)cc2)c1=O [Posaconazole],inactive: 0.642
6,O=C(O)c1ccccc1 [Benzoic Acid],inactive: 0.766
7,CCCCC[C@H](O)/C=C/[C@H]1[C@H](O)CC(=O)[C@@H]1CCCCCCC(=O)O [Alprostadil],inactive: -0.159
8,NC1=N[C@@](c2cccc(-c3cncnc3)c2)(c2ccnc(C(F)F)c2)c2cccc(F)c21,inactive: 0.631
9,COC(=O)[C@]12CCC(C)(C)C[C@H]1[C@H]1C(=O)C=C3[C@@]4(C)C=C(C#N)C(=O)C(C)(C)[C@@H]4CC[C@@]3(C)[C@]1(C)CC2 [Bardoxolone Methyl],active: -6.06
10,CN1CCN(c2nc(C3=C(c4c[nH]c5ccccc45)C(=O)NC3=O)c3ccccc3n2)CC1 [Sotrastaurin],inactive: -0.332
11,COc1cc2ncnc(Nc3ccc(F)c(Cl)c3)c2cc1OCCCN1CCOCC1 [Gefitinib (ZD1839)],inactive: -0.0624
12,NCCCCC(NC(=O)C1CCCN1C(=O)C1CSSCC(N)C(=O)NC(Cc2ccc(O)cc2)C(=O)NC(Cc2ccccc2)C(=O)NC(CCC(N)=O)C(=O)NC(CC(N)=O)C(=O)N1)C(=O)NCC(N)=O (stereo not given) [Lypressin Acetate],inactive: 1.87
13,CC(C(=O)O)c1ccc(C(=O)c2cccs2)cc1 (stereo not given) [Suprofen],inactive: 1.17
14,O=C(c1ccc(OCCCc2c[nH]cn2)cc1)C1CC1 [Ciproxifan],inactive: 6.24
15,CC(C)[C@H](N)C(=O)OCC(CO)OCn1cnc2c(=O)[nH]c(N)nc21 (stereo not given in full) [Valganciclovir HCl],inactive: -0.0767
16,CN1CCC[C@@H]1CCO[C@](C)(c1ccccc1)c1ccc(Cl)cc1 [Clemastine Fumarate],inactive: -0.408
17,CCOc1ccc(NC(C)=O)cc1 [Phenacetin],inactive: 0.0928
18,CN1CCN(Cc2ccc(NC(=O)Nc3ccc(Oc4ccnc(N)n4)cc3)cc2C(F)(F)F)CC1,active: -5.93
19,CC[N+](CC)(CC)CCOc1cccc(OCC[N+](CC)(CC)CC)c1OCC[N+](CC)(CC)CC [Gallamine Triethiodide],inactive: -0.203
20,CCOC(=O)[N-]c1c[n+](N2CCOCC2)no1 [Molsidomine],inactive: 0.265
21,CC(C)(C)NCC(O)c1cc(O)cc(O)c1 (stereo not given) [Terbutaline Sulfate],inactive: 0.397
22,CN(C)CCCCC(=O)Nc1ccc(NC(=S)NC(=O)c2ccc(C(C)(C)C)cc2)cc1 [Tenovin-6],inactive: -1.82
23,C=C(c1ccc(C(=O)O)cc1)c1cc2c(cc1C)C(C)(C)CCC2(C)C [Bexarotene],inactive: 2.03

row,SMILES,nuclei number (z-score)
1,CCc1oc2ccccc2c1C(=O)c1cc(Br)c(O)c(Br)c1 [Benzbromarone],inactive: -0.309
2,CC/C(=C(\c1ccccc1)c1ccc(OCCN(C)C)cc1)c1ccccc1 [Tamoxifen Citrate],active: -2.41
3,CC/C(=C(\c1ccccc1)c1ccc(OCCN(C)C)cc1)c1ccccc1 [Tamoxifen],active: -3.56
4,Cn1cc(-c2ccc(S(=O)(=O)n3ccc(/C=C/C(=O)Nc4ccccc4N)c3)cc2)cn1,inactive: -0.32
5,CCN(CCCOc1ccc2c(Nc3cc(CC(=O)Nc4cccc(F)c4)[nH]n3)ncnc2c1)CCOP(=O)(O)O [Barasertib (AZD1152-HQPA)],inactive: 0.028
6,Cc1ccccc1N=Nc1ccc(NC(=O)c2ccnn2C)c(C)c1,inactive: 0.0346
7,O=c1[nH]nc(Sc2ncc([N+](=O)[O-])s2)n1-c1ccc2c(c1)OCCO2,active: -6.44
8,Cc1c[nH]c(/C=C2\C(=O)Nc3ccccc32)c1CCC(=O)O,inactive: 0.409
9,CN[C@@H]1[C@H](O[C@H]2[C@H](O[C@H]3[C@H](O)[C@@H](O)[C@H](NC(=N)N)[C@@H](O)[C@@H]3NC(=N)N)O[C@@H](C)[C@]2(O)CO)O[C@@H](CO)[C@H](O)[C@H]1O [Dihydrostreptomycin sulfate],inactive: 0.875
10,COc1c2ccoc2cc2oc(=O)ccc12 [Bergapten],inactive: 1.97
11,CCCCCCCCCCCC1=C(O)C(=O)C=C(O)C1=O [Embelin],inactive: -0.771
12,NCCCC(N)(C(=O)O)C(F)F (stereo not given) [Eflornithine hydrochloride hydrate],inactive: 1.8
13,O=C(O)CNC(=O)c1nc(Cl)c2ccccc2c1O,inactive: 0.0222
14,CCOCc1nc2c(N)nc3ccccc3c2n1CC(C)(C)O [Resiquimod],inactive: -0.279
15,CN(C)CCOC(c1ccc(Cl)cc1)c1ccccn1 (stereo not given) [CarbinoxaMine Maleate],inactive: 0.462
16,O=C1CCc2ccc(OCCCCN3CCN(c4cccc(Cl)c4Cl)CC3)cc2N1 [Aripiprazole],inactive: 1.39
17,Cc1ccccc1C(OCCN(C)C)c1ccccc1 (stereo not given) [Orphenadrine Citrate],inactive: 0.0915
18,Cc1nn(C)c2c1C(c1ccc(C(F)(F)F)cc1)C(C#N)=C(N)O2 (stereo not given),inactive: 1.75
19,O=C1C(O)=C([C@H]2CC[C@H](c3ccc(Cl)cc3)CC2)C(=O)c2ccccc21 [Atovaquone],inactive: 3.22
20,CNCc1cc(-c2ccccc2F)n(S(=O)(=O)c2cccnc2)c1,inactive: -0.447
21,CCCC(=O)[O-].[Na+] [Sodium butyrate],inactive: -0.221
22,C/C=C(/C)C(=O)O[C@H]1[C@H](OC(C)=O)[C@@]2(CO)C(CC1(C)C)C1=CCC3[C@@]4(C)CCC(O[C@@H]5O[C@H](C(=O)O)[C@@H](O[C@@H]6O[C@H](CO)[C@@H](O)[C@H](O)[C@H]6O)[C@H](O)[C@H]5O[C@@H]5O[C@H](CO)[C@@H](O)[C@H](O)[C@H]5O)[C@](C)(CO)C4CC[C@@]3(C)[C@]1(C)C[C@H]2O.C/C=C(\C)C(=O)O[C@H]1[C@H](OC(C)=O)[C@@]2(CO)C(CC1(C)C)C1=CCC3[C@@]4(C)CCC(O[C@@H]5O[C@H](C(=O)O)[C@@H](O[C@@H]6O[C@H](CO)[C@@H](O)[C@H](O)[C@H]6O)[C@H](O)[C@H]5O[C@@H]5O[C@H](CO)[C@@H](O)[C@H](O)[C@H]5O)[C@](C)(CO)C4CC[C@@]3(C)[C@]1(C)C[C@H]2O (stereo not given in full) [Escin],active: -2.05
